Data: the supplement of paper PMC12217912
The other results are listed elsewhere or left out. The full chains were built here from the parent and the listed change. Values near 0.05 are background.

B1: TEV protease; numbered along this chain (parent)
chain: MGESLFKGPRDYNPISSSICHLTNESDGHTTSLYGIGFGPFIITNKHLFRRNNGTLVVQSLHGVFKVKDTTTLQQHLVDGRDMIIIRMPKDFPPFPQKLKFREPQREERICLVTTNFQTKSMSSMVSDTSCTFPSGDGIFWKHWIQTKDGQCGSPLVSTRDGFIVGIHSASNFTNTNNYFTSVPKNFMELLTNQEAQQWVSGWRLNADSVLWGGHKVFMVKPEEPFQPVKEATQL

Variants of: B1
Assay: raw area under fraction-flipped curve 0-4 h after induction (AUC4h, not background-subtracted), DNA-recorder readout of cleavage of the substrate (dimensionless); higher = more cleavage of the substrate by the protease variant
Conditions: temperature: 34 °C; time window: 0-4 h after rhamnose induction
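Further: Bxb1 expression induced with 0.2% (w/v) L-rhamnose at OD600 near 0.5, cultures sampled hourly, flipped fraction per protease–substrate barcode pair counted by paired-end Illumina sequencing.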

Variant	area with substrate ECLYFQS	area with substrate EDLYFQS	area with substrate EKLYFQS	area with substrate ELLYFQS	area with substrate EQLYFQS	area with substrate ERLYFQS	area with substrate ESLYFQS	area with substrate EELYFQS	area with substrate EMLYFQS	area with substrate EPLYFQS	area with substrate EVLYFQS	area with substrate EWLYFQS	area with substrate EFLYFQS	area with substrate EHLYFQS	area with substrate EYLYFQS	area with substrate EGLYFQS	area with substrate EILYFQS	area with substrate ETLYFQS
T115A	0.12	0.106	0.115	0.0748	0.116	0.117	0.077											
T115L	0.11	0.131				0.0999		0.159	0.104	0.147	0.0869	0.0799						
F117A	0.102	0.117	0.111			0.0959	0.133		0.0664		0.0798		0.129	0.108	0.106			
F117C	0.118	0.126		0.104	0.133		0.0882	0.0045	0.0963	0.115	0.12				0.0994	0.087	0.0781	0.144
F117S	0.112	0.0979	0.125	0.0899	0.108	0.0907			0.0936	0.148	0.121			0.117	0.0916	0.108	0.0995	0.113
Q118D	0.155	0.104	0.111	0.0865		0.0984			0.102		0.084	0.118		0.125		0.0896	0.0293	
T119D	0.107					0.0965	0.102	0.101			0.154							
T119Y	0.0858		0.125		0.119	0.0773	0.112	0.151	0.111	0.12	0.132	0.0932	0.097				0.0845	
